Experimental data taken from PubChem BioAssay (NCATS).
“And” between values parts separate entries of the source, which are not always exact repeats. Identical values can stand only once. This list was built around the results that the source calls inconclusive (neither active nor inactive); the mix of calls is not that of the screen. Potencies beside an inconclusive call are fits to weak or partial responses and may not hold up. The source made the active and inactive calls. Calls follow the shape of the dose curve; as a rule, active = well fitted curve in the direction sought with a large enough effect; inconclusive = small, poorly fitted or top-dose-only effect, or another doubt; inactive = no such curve, though single readings can be large; an effect the other way counts as inactive or inconclusive.

Tests used:
[1] = P-glycoprotein substrates identified in KB-8-5-11 adenocarcinoma cell line, qHTS therapeutic library screen (AID 1346987); also: nearly all actives have a fitted effect of over 65% in size
Method in brief: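 KB-8-5-11: colchicine-selected sub-line of KB-3-1 over-expressing P-gp; assay medium lacked colchicine. 72 h drug exposure at 37 degree C, CellTiter-Glo.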

[2] = Primary qHTS for inhibitors of nuclear receptor binding SET domain protein 2 (NSD2) in an isogenic RCH-ACV NSD2 p.E1099K mutant (9B) (AID 1645876); also: nearly all actives have a fitted effect of over 70% in size
[3] = Primary qHTS for inhibitors of nuclear receptor binding SET domain protein 2 (NSD2) in an RCH-ACV wild type WT cells (2C) (AID 1645877); details: activity change, negative = cell killing: at 44.9 µM (top of the series) unless noted; also: nearly all actives have a fitted effect of over 70% in size
CRL-7250 = normal cell line; test: Cytotoxic Profiling of Annotated Libraries Using Quantitative High-Throughput Screening (AID 1296008); details: Five cell lines viability, CellTiter-Glo ATP luminescence, 48-72 h; max response: stronger effect = lower value; also: nearly all actives have a fitted effect of over 60% in size; as to max response: % is scaled to controls: 0 for no effect and ±100 for the full control effect
Method in brief: (§1)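 Cytotoxicity was measured as CellTiter-Glo ATP luminescence, read after 10 min at room temperature. Compound treatment of the cells lasted 48 or 72 hr at 37 degrees Celsius in a qHTS format.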

HaCat = test: as above; details: Five cell lines viability, CellTiter-Glo ATP luminescence, 48-72 h; max response: stronger effect = lower value
Method in brief: as §1

KB-3-1 = test: as above; details: Five cell lines viability, CellTiter-Glo ATP luminescence, 48-72 h; max response: stronger effect = lower value
Method in brief: as §1

NIH3T3 = test: as above; details: Five cell lines viability, CellTiter-Glo ATP luminescence, 48-72 h; max response: stronger effect = lower value
Method in brief: as §1

CAOV3 = test: Primary qHTS to identify gynecologic anti-cancer compounds using libraries of approved drugs and bioactive compounds (AID 1345084); details: Gynecologic cancer cell panel viability, ATPlite luminescence, 48 h; activity change, negative = cytotoxicity: at 57.5 µM (top of the series); also: nearly all actives have a fitted effect of over 55% in size; as to activity change, negative = cytotoxicity: % is scaled to controls: 0 for no effect and ±100 for the full control effect
Method in brief: (§2)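 Cytotoxicity screen measuring ATP content by luciferase luminescence. Each compound is applied at five concentrations for 48 h at 37 C with 5% CO2.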

CASKI = test: as above; details: Gynecologic cancer cell panel viability, ATPlite luminescence, 48 h; series mostly up to 57.5 µM
Method in brief: as §2

Es-2 = test: as above; details: Gynecologic cancer cell panel viability, ATPlite luminescence, 48 h; series mostly up to 57.5 µM
Method in brief: as §2

HeLa = test: as above; details: Gynecologic cancer cell panel viability, ATPlite luminescence, 48 h; activity change, negative = cytotoxicity: at 57.5 µM (top of the series)
Method in brief: as §2

Hek293T = test: as above; details: Gynecologic cancer cell panel viability, ATPlite luminescence, 48 h, control line for the selectivity index; activity change, negative = cytotoxicity: at 57.5 µM (top of the series) unless noted
Method in brief: as §2

OV90 = test: as above; details: Gynecologic cancer cell panel viability, ATPlite luminescence, 48 h; series mostly up to 57.5 µM
Method in brief: as §2

PA-1 = test: as above; details: Gynecologic cancer cell panel viability, ATPlite luminescence, 48 h; series mostly up to 57.5 µM
Method in brief: as §2

SKOV3 = test: as above; details: Gynecologic cancer cell panel viability, ATPlite luminescence, 48 h; series mostly up to 57.5 µM
Method in brief: as §2

Tov-21-G = test: as above; details: Gynecologic cancer cell panel viability, ATPlite luminescence, 48 h; activity change, negative = cytotoxicity: at 57.5 µM (top of the series) unless noted
Method in brief: as §2

C33A = test: as above; details: Gynecologic cancer cell panel viability, ATPlite luminescence, 48 h; series mostly up to 57.5 µM
Method in brief: as §2

Tov112D = test: as above; details: Gynecologic cancer cell panel viability, ATPlite luminescence, 48 h; series mostly up to 57.5 µM
Method in brief: as §2

[4] = test system: Zika virus NS2B-NS3 protease (unlinked complex); test: Primary screen GU Rhodamine qHTS for Zika virus inhibitors: Unlinked NS2B-NS3 protease assay (AID 1347159); also: nearly all actives have a fitted effect of over 60% in size
Method in brief: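 Compounds, tested up to 114 microM, were incubated for 15 minutes with 25 nM unlinked NS2B-NS3 protease at pH 8.0. Cleavage of 1.5 microM Rhodamine110 substrate was then followed by fluorescence for 15 minutes.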
Potency is read from the fitted curve at half-maximal effect; tags tell the direction and shape of the fitted curve.

CC(=O)Nc1nc2c(Oc3cc(-c4ccc(C(F)(F)F)cc4)ncn3)cccc2s1
Potency [1]: inconclusive: 18.4 µM [inhibitor, single point] | Potency [2]: active: 6.49 µM | Potency [3]: active: 4.09 µM | Potency (CRL-7250): inconclusive: 29.1 µM [inhibitor, single point] | Potency (HaCat): inconclusive: 25.9 µM [inhibitor, single point] | Potency (KB-3-1): inconclusive: 23.1 µM [inhibitor, single point] | Potency (NIH3T3): inconclusive: 20.6 µM [inhibitor, single point] | Potency (CAOV3): inconclusive: 39.8 µM [cytotoxic, partial curve, poor fit] | Potency (CASKI): inconclusive: 39.8 µM [cytotoxic, single point] | Potency (Es-2): inconclusive: 35.5 µM [cytotoxic, single point] | Potency (HeLa): inconclusive: 39.8 µM [cytotoxic, single point] | Potency (Hek293T): inconclusive: 39.8 µM [cytotoxic, single point] | Potency (OV90): inconclusive: 39.8 µM [cytotoxic, partial curve, poor fit] | Potency (PA-1): inconclusive: 28.2 µM [cytotoxic, single point] | Potency (SKOV3): inconclusive: 20 µM [cytotoxic, partial curve, poor fit] | Potency (Tov-21-G): active: 22.4 µM

Cc1nc(NC(=O)N2CCCC2C(N)=O)sc1-c1ccnc(C(C)(C)C(F)(F)F)c1 (stereo not drawn)
Potency [1]: inconclusive: 16.4 µM [inhibitor, partial curve] | Potency [2]: active: 2.35 µM | Potency (CRL-7250): inconclusive: 8.2 µM [inhibitor, partial curve] | Potency (HaCat): active: 2.31 µM | Potency (KB-3-1): inconclusive: 23.1 µM [inhibitor, single point] | Potency (NIH3T3): active: 9.2 µM | Potency (CAOV3): inconclusive: 3.16 µM [cytotoxic, single point] | Potency (CASKI): active: 3.55 µM | Potency (OV90): inconclusive: 10 µM [cytotoxic, partial curve] | Potency (PA-1): inconclusive: 8.91 µM [cytotoxic, partial curve] | Potency (SKOV3): active: 8.91 µM

COc1cc(CCc2cc(NC(=O)c3ccc(N4C[C@@H](C)N[C@@H](C)C4)cc3)n[nH]2)cc(OC)c1
Potency [1]: inconclusive: 37.2 µM [inhibitor, single point] and inconclusive: 29.1 µM [inhibitor, single point] | Potency [3]: active: 5.9 µM | Potency (CRL-7250): active: 4.69 µM and active: 8.2 µM | Potency (HaCat): inconclusive: 29.1 µM [inhibitor, single point] | Potency (KB-3-1): active: 9.35 µM and inconclusive: 18.4 µM [inhibitor, single point] | Potency (C33A): inconclusive: 39.8 µM [cytotoxic, single point] | Potency (CAOV3): inconclusive: 10 µM [cytotoxic, partial curve, poor fit] | Potency (CASKI): inconclusive: 15.8 µM [cytotoxic, partial curve] | Potency (Es-2): inconclusive: 39.8 µM [cytotoxic, single point] | Potency (HeLa): active: 25.1 µM | Potency (OV90): inconclusive: 25.1 µM [cytotoxic, single point] | Potency (PA-1): active: 20 µM | Potency (SKOV3): inconclusive: 12.6 µM [cytotoxic, partial curve, poor fit] | Potency (Tov-21-G): inconclusive: 25.1 µM [cytotoxic, partial curve] | Potency (Tov112D): inconclusive: 35.5 µM [cytotoxic, partial curve, poor fit]

CC(C)S(=O)(=O)Nc1ccc(F)c(C(=O)c2c[nH]c3ncc(-c4cccnc4)cc23)c1F
Potency [4]: inconclusive: 50.1 µM [inhibitor, partial curve] | Potency (CRL-7250): active: 18.4 µM | Potency (HaCat): inconclusive: 25.9 µM [inhibitor, single point] | Potency (KB-3-1): inconclusive: 18.4 µM [inhibitor, partial curve, poor fit] | Potency (NIH3T3): inconclusive: 29.1 µM [inhibitor, single point] | Potency (CAOV3): inconclusive: 12.6 µM [cytotoxic, partial curve, poor fit] | Potency (Es-2): inconclusive: 14.1 µM [cytotoxic, partial curve] | Potency (HeLa): inconclusive: 15.8 µM [cytotoxic, partial curve, poor fit] | Potency (OV90): inconclusive: 15.8 µM [cytotoxic, partial curve, poor fit] | Potency (PA-1): inconclusive: 10 µM [cytotoxic, partial curve, poor fit] | Potency (SKOV3): active: 25.1 µM | Potency (Tov-21-G): inconclusive: 35.5 µM [cytotoxic, single point]

N#Cc1cc(CN2CCC(Nc3ncnc4sc(Cl)cc34)CC2)ccc1F
Potency [1]: active: 9.2 µM | Potency (CRL-7250): inconclusive: 23.1 µM [inhibitor, single point] | Potency (HaCat): inconclusive: 0.461 µM [inhibitor, full curve] | Potency (KB-3-1): inconclusive: 29.1 µM [inhibitor, single point] | Potency (NIH3T3): inconclusive: 1.16 µM [inhibitor, full curve, poor fit] | Potency (Es-2): inconclusive: 10 µM [cytotoxic, partial curve] | Potency (Hek293T): inconclusive: 39.8 µM [cytotoxic, single point] | Potency (OV90): inconclusive: 35.5 µM [cytotoxic, single point] | Potency (PA-1): inconclusive: 39.8 µM [cytotoxic, single point] | Potency (SKOV3): inconclusive: 39.8 µM [cytotoxic, single point] | Potency (Tov-21-G): inconclusive: 35.5 µM [cytotoxic, single point]

COc1cccc(NC[C@@H](O)Cn2c3ccc(Br)cc3c3cc(Br)ccc32)c1
Potency [1]: active: 23.1 µM | Potency [4]: active: 44.7 µM | Potency [2]: inconclusive: 29 µM [inhibitor, single point] | Potency [3]: inconclusive: 29 µM [inhibitor, single point] | Potency (CRL-7250): inconclusive: 20.6 µM [inhibitor, single point] | Potency (HaCat): inconclusive: 29.1 µM [inhibitor, single point] | Potency (KB-3-1): inconclusive: 25.9 µM [inhibitor, single point] | Potency (NIH3T3): inconclusive: 18.4 µM [inhibitor, partial curve] | Potency (CAOV3): inconclusive: 31.6 µM [cytotoxic, single point] | Potency (HeLa): inconclusive: 39.8 µM [cytotoxic, single point] | Potency (OV90): inconclusive: 39.8 µM [cytotoxic, single point] | Potency (PA-1): inconclusive: 39.8 µM [cytotoxic, single point] | Potency (SKOV3): inconclusive: 0.282 µM [rising, full curve, poor fit] | Potency (Tov-21-G): inconclusive: 39.8 µM [cytotoxic, single point]

CS(=O)(=O)Nc1ccc2oc3c(OC(F)F)ccc(C(=O)Nc4c(Cl)cncc4Cl)c3c2c1
Potency [1]: inconclusive: 20.6 µM [inhibitor, single point] | Potency [2]: inconclusive: 23 µM [inhibitor, single point] | Potency [3]: inconclusive: 18.3 µM [inhibitor, partial curve] | max response (CRL-7250): inactive: -13.5% | Potency (HaCat): inconclusive: 10.3 µM [inhibitor, partial curve, poor fit] | Potency (KB-3-1): inconclusive: 29.1 µM [inhibitor, single point] | max response (NIH3T3): inactive: -9.63% | Potency (C33A): inactive | Potency (Es-2): inactive | Potency (HeLa): inconclusive: 31.6 µM [cytotoxic, partial curve, poor fit] | Potency (Hek293T): inactive

O=C(c1cccc(Cl)c1F)N1CCN(Cc2cccc(Nc3nccs3)n2)CC1
Potency [1]: inconclusive: 0.291 µM [inhibitor, full curve] | Potency [2]: active: 0.817 µM | Potency [3]: active: 0.728 µM | Potency (CRL-7250): inconclusive: 5.17 µM [inhibitor, partial curve] | Potency (HaCat): inconclusive: 1.64 µM [inhibitor, full curve, poor fit] | Potency (KB-3-1): active: 1.16 µM | Potency (NIH3T3): inconclusive: 5.8 µM [inhibitor, full curve, poor fit] | Potency (CAOV3): inconclusive: 0.141 µM [cytotoxic, full curve, poor fit] | Potency (CASKI): inconclusive: 1.78 µM [cytotoxic, full curve, poor fit] | Potency (Hek293T): inconclusive: 1.78 µM [cytotoxic, full curve] | Potency (PA-1): inconclusive: 7.94 µM [cytotoxic, full curve] | Potency (SKOV3): inconclusive: 22.4 µM [cytotoxic, single point] | Potency (Tov-21-G): inconclusive: 15.8 µM [cytotoxic, partial curve]

CCOc1ccc(-c2nc(-c3cccc4c3CCC4NCCO)no2)cc1OCC (stereo not drawn)
Potency [1]: inconclusive: 18.4 µM [inhibitor, single point] | Potency [2]: active: 6.49 µM | Potency (CRL-7250): inconclusive: 29.1 µM [inhibitor, single point] | Potency (HaCat): inconclusive: 23.1 µM [inhibitor, single point] | Potency (KB-3-1): inconclusive: 16.4 µM [inhibitor, partial curve, poor fit] | Potency (NIH3T3): inconclusive: 25.9 µM [inhibitor, single point] | Potency (CAOV3): inconclusive: 28.2 µM [cytotoxic, single point] | Potency (CASKI): inactive | Potency (Es-2): inconclusive: 39.8 µM [cytotoxic, single point] | Potency (OV90): inconclusive: 5.01 µM [cytotoxic, full curve] | Potency (SKOV3): inconclusive: 25.1 µM [cytotoxic, partial curve]

Cc1ccc(NC(=O)Nc2cc(C(F)(F)F)ccc2F)cc1Nc1ccc2c(c1)NC(=O)/C2=C\c1ccc[nH]1
Potency [4]: active: 39.8 µM | Potency [3]: active: 20.5 µM and inconclusive: 29.5 µM [inhibitor, single point] | Potency (CRL-7250): inconclusive: 23.1 µM [inhibitor, partial curve, poor fit] | Potency (HaCat): inconclusive: 29.1 µM [inhibitor, partial curve, poor fit] | Potency (KB-3-1): active: 20.6 µM | Potency (NIH3T3): active: 18.4 µM | Potency (C33A): inconclusive: 39.8 µM [cytotoxic, single point] | Potency (CAOV3): inconclusive: 39.8 µM [cytotoxic, single point] | Potency (SKOV3): inconclusive: 35.5 µM [cytotoxic, single point]
